From PubChem BioAssay AID624417 (National Center for Advancing Translational Sciences (NCATS), 2012)
In all, about 410,000 compounds went through this assay and about 6,400 (1.6%) were called active. The shares of active, inactive and inconclusive entries below differ from those in the screen. Calls come from the whole dose curve; as a rule, active = well fitted inhibition curve with a large enough effect; inconclusive = small, poorly fitted or top-dose-only effect; inactive = no such curve, though single readings can be large or run the other way. No potency is given beside an inconclusive call; the fits are too rough.

biological target: Glucagon-like peptide 1 receptor (Homo sapiens) (UniProt P43220); test: qHTS of GLP-1 Receptor Inverse Agonists (Inhibition Mode); details: HEK293 GLP-1R CRE-luciferase, luminescence, 24 h, GLP-1R form is constitutively active; series mostly up to 38.3 µM; note: nearly all actives have a fitted effect of over 55% in size
Summary of the method: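 Seeding at 200 cells/uL, 12 h culture, 24 hr compound treatment, then luciferase reagent and a luminescence read; cells are HEK293 stably expressing a constitutively active GLP-1R plus cAMP-responsive luciferase.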
Potency is the fitted concentration of half-maximal effect; tags give direction and shape of the fitted curve.

UniProt P43220, sequence (P43220 whole entry, looked up): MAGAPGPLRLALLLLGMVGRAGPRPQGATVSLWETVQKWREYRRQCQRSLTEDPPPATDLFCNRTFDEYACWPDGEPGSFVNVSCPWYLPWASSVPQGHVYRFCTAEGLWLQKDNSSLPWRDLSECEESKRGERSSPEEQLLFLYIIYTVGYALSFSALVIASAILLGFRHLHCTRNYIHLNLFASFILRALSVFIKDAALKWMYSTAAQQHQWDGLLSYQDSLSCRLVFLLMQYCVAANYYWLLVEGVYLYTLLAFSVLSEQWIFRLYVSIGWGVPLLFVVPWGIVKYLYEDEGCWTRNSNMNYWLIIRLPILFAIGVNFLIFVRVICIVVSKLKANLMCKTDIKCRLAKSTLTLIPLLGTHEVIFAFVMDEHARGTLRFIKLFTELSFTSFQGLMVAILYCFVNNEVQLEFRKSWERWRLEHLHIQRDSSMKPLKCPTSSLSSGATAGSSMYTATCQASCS

| SMILES | Potency |
| --- | --- |
| COc1cc(C2C(C(=O)c3ccc(C)o3)=C(O)C(=O)N2CCCn2ccnc2)cc(OC)c1OC (stereo unspecified) | inactive |
| CCN(CCNCC(O)COc1ccccc1C(C)C)c1cccc(C)c1 (stereo unspecified) | inconclusive [inhibitor, partial curve, poor fit] |
| COc1cccc(CN2C(=O)C3(SCC(=O)N3c3cc(C)cc(C)c3)c3ccccc32)c1 (stereo unspecified) | inconclusive [inhibitor, partial curve, poor fit] |
| Cc1cccc(NC(=O)Cn2nnc3sc4c(c3c2=O)CC(C)(C)OC4)c1 | inconclusive [inhibitor, partial curve, poor fit] |
| CC(C(=O)Nc1ccccc1Oc1ccccc1)c1ccccc1 (stereo unspecified) | inconclusive [inhibitor, partial curve, poor fit] |
| COc1ccccc1N1CCN(S(=O)(=O)c2cc(-c3cc(C)no3)ccc2C)CC1 | inactive |
| CCOc1cc2c(C#N)c(N3CCOCC3)nc(N)c2c(N)n1 | inactive |
| Cc1nc2ccc(Br)cc2c2c1CC(CBr)O2 (stereo unspecified) | inconclusive [inhibitor, single point] |
| COc1cccc(OC)c1C(=O)OCC(=O)N(c1ccccc1)C1CCCCC1 | inconclusive [inhibitor, single point] |
| COc1cccc(CN2CCC(n3nccc3NC(=O)CCOc3ccccc3)CC2)c1 | inconclusive [inhibitor, single point] |
| COc1ccccc1C/C(N)=N/OC(=O)COc1ccc(C)cc1C | inactive |
| O=C(Nc1ccc(-c2nc3ccccc3s2)cc1)C1=COCCO1 | inconclusive [inhibitor, full curve, poor fit] |
| CS(=O)(=O)c1ccc2nc(NC(=O)c3ccco3)sc2c1 | inconclusive [inhibitor, single point] |
| O=C(CCC(=O)NNC(=O)COc1ccccc1)NCc1ccccc1 | inactive |
| CC(C1=C(CCN(C)C)Cc2ccccc21)c1ccccn1 (stereo unspecified) | inconclusive [inhibitor, partial curve, poor fit] |
| CC1CN(C(=O)CCC(=O)NCc2cccs2)c2cc(Cl)ccc2O1 (stereo unspecified) | inconclusive [inhibitor, single point] |
| COc1ccc(-n2nnnc2C(c2cccc(OC)c2OC)N2CCN(C/C=C/c3ccccc3)CC2)cc1 (stereo unspecified) | inconclusive [inhibitor, single point] |
| CCOC(=O)C1CCN(Cc2ccc(OCc3ccccc3)c(OC)c2)CC1 | inconclusive [inhibitor, partial curve, poor fit] |
| CC(NC(=O)N1CCN(c2ccccc2F)CC1)c1ccc(F)c(F)c1 (stereo unspecified) | inconclusive [inhibitor, partial curve, poor fit] |
| Cc1nn(CC(=O)NCc2cccc(F)c2)c(=O)c2c(C)n(-c3ccc(Cl)cc3)nc12 | inactive |
| Cc1ccc(C2(c3ccc(C)cc3)NC(=O)N(Cc3c(C)noc3C)C2=O)cc1 | active: 10 µM |

| SMILES | Potency |
| --- | --- |
| CCc1nc(NCC2CCCO2)c(C#N)c2c1COC(C)(C)C2 (stereo unspecified) | inconclusive [inhibitor, partial curve, poor fit] |
| COc1cccc(/C=N/NC(=S)NCCc2ccccc2)c1 | inconclusive [inhibitor, partial curve, poor fit] |
| CCOc1ccc(NC(=O)c2csc3c2CCCC3)cc1 | inconclusive [inhibitor, partial curve, poor fit] |
| Nc1ccn([C@@H]2O[C@H](CNCc3cccc(OC4CCCC4)c3)[C@@H](O)[C@H]2O)c(=O)n1 | inactive |
| CC(C)c1ccc(NC(=S)NCc2cccs2)cc1 | inconclusive [inhibitor, single point] |
| CC(C)OC(=O)/C(=C\c1ccccc1)NC(=O)c1ccccc1 | inactive |
| Clc1ccc(C2=C3CCCCn4c(-c5ccccc5)c[n+](c43)C2)cc1 | inconclusive [inhibitor, single point] |
| COc1cccc2c3c(c(C)nc12)CCN3c1ccccc1 | inconclusive [inhibitor, partial curve] |
| Cc1ccc(NC(=O)CN(C)CC(=O)Nc2cccc(F)c2)cc1S(=O)(=O)N1CCCCCC1 | inconclusive [inhibitor, partial curve, poor fit] |
| Cc1cc(C(=O)CSc2ncccn2)c(C)n1-c1cccc(F)c1 | inconclusive [inhibitor, partial curve, poor fit] |
| CCc1nc2ccc(C(=O)NCCN3CCNC3=O)cn2c1N(CC)CCOC | inactive |
| COc1cccc(CNC(=O)CCc2nc(-c3ccc(C)cc3)no2)c1 | inconclusive [inhibitor, single point] |
| Cc1ccc(S(=O)(=O)N2C=CC(C(F)(F)F)=NCC2)cc1 | inactive |
| C=CCNC(=O)CC1C(=O)NCCN1Cc1ccc(-c2ccccc2)cc1 (stereo unspecified) | inconclusive [inhibitor, partial curve, poor fit] |
| COC(=O)C1=CN(c2ccccc2OC)C(N)=C(C#N)C1c1cccc([N+](=O)[O-])c1 (stereo unspecified) | inconclusive [inhibitor, full curve, poor fit] |
| Cc1cc(OCCn2cc(C(=O)c3ccco3)c3ccccc32)ccc1Cl | inconclusive [inhibitor, partial curve, poor fit] |
| CC1Cc2ccccc2N1CC(=O)NCc1ccccc1Cl (stereo unspecified) | inconclusive [inhibitor, single point] |
| COc1ccccc1NC(=O)CSc1oc(-c2ccco2)nc1S(=O)(=O)c1ccc(Br)cc1 | inconclusive [inhibitor, single point] |
| COc1ccc(NCc2nnc(SCC(=O)NCc3ccccc3)n2-c2ccccc2OC)cc1 | inconclusive [inhibitor, full curve, poor fit] |
| COC(=O)CNC(c1ccccc1)c1cc(C)ccc1NC(=O)c1cccc(Cl)c1 (stereo unspecified) | inconclusive [inhibitor, partial curve, poor fit] |
